# Experimental data taken from the supplement of paper PMC8728848.
# The list shows a part of the results.
# B1: PVL (Psathyrella velutina), Q309D1_9AGAR (protein)
# chain: MSVVVISQALPVPTRIPGVADLVGFGNGGVYIIRNSLLIQVVKVINNFGYDAGGWRVEKHVRLLADTTGDNQPDVVGFGENGVWISTNNGNNTFVDPPKMVLANFAYAAGGWRVEKHIRFMADLRKTGRADIVGFGDGGIYISRNNGGGQFAPAQLALNNFGYAQGWRLDRHLRFLADVTGDGLLDVVGFGENQVYIARNSGNGTFQPAQAVVNNFCIGAGGWTISAHPRVVADLTGDRKADILGFGVAGVYTSLNNGNGTFGAVNLVLKDFGVNSGWRVEKHVRCVSSLTNKKVGDIIGFGDAGVYVALNNGNGTFGPVKRVIDNFGYNQGWRVDKHPRFVVDLTGDGCADIVGFGENSVWACMNKGDGTFGPIMKLIDDMTVSKGWTLQKTVRYAANLYL
# Columns and labels:
# Assay in all cases: glycan array binding signal (z-score within array); higher = stronger binding
# Conditions in all cases: glycan notation: IUPAC condensed, linker removed
# [1] = molecular target: Gal3S(b1-3)[Fuc(a1-4)]GlcNAc
# Procedure, shortened: (§1)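 Glycan array data came from 3228 arrays in the Consortium for Functional Glycomics database, and only arrays with an available protein sequence were kept. Glycan names were put into IUPAC-condensed notation, and columns mapping to the same glycan were averaged. The binding signal is a within-array Z-score, averaged across arrays of one protein sequence run at different concentrations or buffers and across linkers. A negative Z-score can be read as non-binding.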
# Gal3S(b1-4)Glc = molecular target: Gal3S(b1-4)Glc
# Procedure, shortened: as §1
# Gal3S(b1-4)Glc6S = molecular target: Gal3S(b1-4)Glc6S
# Procedure, shortened: as §1
# Gal3S(b1-4)GlcNAc = molecular target: Gal3S(b1-4)GlcNAc
# Procedure, shortened: as §1
# [2] = molecular target: Gal3S(b1-4)[Fuc(a1-3)]Glc6S
# Procedure, shortened: as §1
# [3] = molecular target: Gal3S(b1-4)[Fuc(a1-3)]GlcNAc
# Procedure, shortened: as §1
# [4] = molecular target: Gal3S(b1-4)[Fuc(a1-3)]GlcNAc6S
# Procedure, shortened: as §1
# Gal3S4S(b1-4)GlcNAc = molecular target: Gal3S4S(b1-4)GlcNAc
# Procedure, shortened: as §1
# Gal3S6S(b1-4)GlcNAc = molecular target: Gal3S6S(b1-4)GlcNAc
# Procedure, shortened: as §1
# Gal3S6S(b1-4)GlcNAc6S = molecular target: Gal3S6S(b1-4)GlcNAc6S
# Procedure, shortened: as §1
# Gal4S(b1-4)GlcNAc = molecular target: Gal4S(b1-4)GlcNAc
# Procedure, shortened: as §1
# Gal4S6S(b1-4)GlcNAc = molecular target: Gal4S6S(b1-4)GlcNAc
# Procedure, shortened: as §1
# Gal6P(b1-4)GlcNAc = molecular target: Gal6P(b1-4)GlcNAc
# Procedure, shortened: as §1
# Gal6S(b1-3)GlcNAc = molecular target: Gal6S(b1-3)GlcNAc
# Procedure, shortened: as §1
# Gal6S(b1-3)GlcNAc6S = molecular target: Gal6S(b1-3)GlcNAc6S
# Procedure, shortened: as §1
# Gal6S(b1-4)Glc = molecular target: Gal6S(b1-4)Glc
# Procedure, shortened: as §1
# Gal6S(b1-4)Glc6S = molecular target: Gal6S(b1-4)Glc6S
# Procedure, shortened: as §1
# Gal6S(b1-4)GlcNAc = molecular target: Gal6S(b1-4)GlcNAc
# Procedure, shortened: as §1
# Gal6S(b1-4)GlcNAc6S = molecular target: Gal6S(b1-4)GlcNAc6S
# Procedure, shortened: as §1
# GalNAc(a1-3)Gal = molecular target: GalNAc(a1-3)Gal
# Procedure, shortened: as §1
# GalNAc(a1-3)GalNAc = molecular target: GalNAc(a1-3)GalNAc
# Procedure, shortened: as §1
# [5] = molecular target: GalNAc(a1-3)GalNAc(b1-3)Gal(a1-4)Gal(b1-4)Glc
# Procedure, shortened: as §1
# [6] = molecular target: GalNAc(a1-3)GalNAc(b1-3)Gal(a1-4)Gal(b1-4)GlcNAc
# Procedure, shortened: as §1
# GalNAc(b1-3)Gal = molecular target: GalNAc(b1-3)Gal
# Procedure, shortened: as §1
# [7] = molecular target: GalNAc(b1-3)Gal(a1-4)Gal(b1-4)GlcNAc
# Procedure, shortened: as §1
# [8] = molecular target: GalNAc(b1-3)Gal(a1-4)Gal(b1-4)GlcNAc(b1-3)Gal(b1-4)Glc
# Procedure, shortened: as §1
# [9] = molecular target: GalNAc(b1-3)Gal(a1-6)Gal(b1-4)Glc
# Procedure, shortened: as §1
# GalNAc(b1-3)GalNAc = molecular target: GalNAc(b1-3)GalNAc
# Procedure, shortened: as §1
# GalNAc(b1-3)GlcNAc = molecular target: GalNAc(b1-3)GlcNAc
# Procedure, shortened: as §1
# GalNAc(b1-4)Gal(b1-4)Glc = molecular target: GalNAc(b1-4)Gal(b1-4)Glc
# Procedure, shortened: as §1
# GalNAc(b1-4)GlcNAc = molecular target: GalNAc(b1-4)GlcNAc
# Procedure, shortened: as §1
# [10] = molecular target: GalNAc(b1-4)GlcNAc(b1-2)Man
# Procedure, shortened: as §1
# [11] = molecular target: GalNAc(b1-4)GlcNAc(b1-2)Man(a1-3)[GalNAc(b1-4)GlcNAc(b1-2)Man(a1-6)]Man(b1-4)GlcNAc(b1-4)GlcNAc
# Procedure, shortened: as §1
# [12] = molecular target: GalNAc(b1-4)GlcNAc(b1-3)GalNAc(b1-4)GlcNAc
# Procedure, shortened: as §1
# GalNAc(b1-4)GlcNAc6S = molecular target: GalNAc(b1-4)GlcNAc6S
# Procedure, shortened: as §1
# GalNAc(b1-6)GalNAc = molecular target: GalNAc(b1-6)GalNAc
# Procedure, shortened: as §1
# GalNAc3S(b1-4)GlcNAc = molecular target: GalNAc3S(b1-4)GlcNAc
# Procedure, shortened: as §1
binder,measurement,setting,value
B1,glycan array binding signal (z-score),[1],-0.366
same,glycan array binding signal (z-score),Gal3S(b1-4)Glc,-0.361
same,glycan array binding signal (z-score),Gal3S(b1-4)Glc6S,-0.368
same,glycan array binding signal (z-score),Gal3S(b1-4)GlcNAc,-0.367
same,glycan array binding signal (z-score),[2],-0.351
same,glycan array binding signal (z-score),[3],-0.357
same,glycan array binding signal (z-score),[4],-0.344
same,glycan array binding signal (z-score),Gal3S4S(b1-4)GlcNAc,-0.344
same,glycan array binding signal (z-score),Gal3S6S(b1-4)GlcNAc,-0.33
same,glycan array binding signal (z-score),Gal3S6S(b1-4)GlcNAc6S,-0.286
same,glycan array binding signal (z-score),Gal4S(b1-4)GlcNAc,-0.188
same,glycan array binding signal (z-score),Gal4S6S(b1-4)GlcNAc,-0.324
same,glycan array binding signal (z-score),Gal6P(b1-4)GlcNAc,-0.365
same,glycan array binding signal (z-score),Gal6S(b1-3)GlcNAc,-0.361
same,glycan array binding signal (z-score),Gal6S(b1-3)GlcNAc6S,-0.354
same,glycan array binding signal (z-score),Gal6S(b1-4)Glc,-0.36
same,glycan array binding signal (z-score),Gal6S(b1-4)Glc6S,-0.403
same,glycan array binding signal (z-score),Gal6S(b1-4)GlcNAc,-0.361
same,glycan array binding signal (z-score),Gal6S(b1-4)GlcNAc6S,-0.359
same,glycan array binding signal (z-score),GalNAc(a1-3)Gal,-0.363
same,glycan array binding signal (z-score),GalNAc(a1-3)GalNAc,-0.393
same,glycan array binding signal (z-score),[5],-0.352
same,glycan array binding signal (z-score),[6],-0.348
same,glycan array binding signal (z-score),GalNAc(b1-3)Gal,-0.243
same,glycan array binding signal (z-score),[7],-0.379
same,glycan array binding signal (z-score),[8],-0.269
same,glycan array binding signal (z-score),[9],-0.308
same,glycan array binding signal (z-score),GalNAc(b1-3)GalNAc,1.31
same,glycan array binding signal (z-score),GalNAc(b1-3)GlcNAc,-0.367
same,glycan array binding signal (z-score),GalNAc(b1-4)Gal(b1-4)Glc,-0.367
same,glycan array binding signal (z-score),GalNAc(b1-4)GlcNAc,-0.225
same,glycan array binding signal (z-score),[10],-0.338
same,glycan array binding signal (z-score),[11],-0.355
same,glycan array binding signal (z-score),[12],-0.319
same,glycan array binding signal (z-score),GalNAc(b1-4)GlcNAc6S,-0.343
same,glycan array binding signal (z-score),GalNAc(b1-6)GalNAc,-0.317
same,glycan array binding signal (z-score),GalNAc3S(b1-4)GlcNAc,-0.357
